For 7 molecules, binding results are on record in PMC2447299.

Amino acid sequences for entries named in this document (tags omitted). A change or cut given only in a name is not applied to a line headed by its entry. Chains listed by the source or under a name are the forms on record and can include a tag or linker.
UniProt P51875: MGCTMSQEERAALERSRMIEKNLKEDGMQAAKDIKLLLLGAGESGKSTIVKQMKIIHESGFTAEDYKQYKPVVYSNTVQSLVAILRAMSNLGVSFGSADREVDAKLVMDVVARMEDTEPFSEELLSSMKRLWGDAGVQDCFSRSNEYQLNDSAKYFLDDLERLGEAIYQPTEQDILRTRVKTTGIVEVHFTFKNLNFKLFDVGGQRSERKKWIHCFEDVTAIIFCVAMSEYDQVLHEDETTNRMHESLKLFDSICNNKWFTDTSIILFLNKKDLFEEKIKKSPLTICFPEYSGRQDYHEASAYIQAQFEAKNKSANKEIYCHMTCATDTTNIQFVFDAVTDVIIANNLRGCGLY
GOA-1-QL (P51875, form named): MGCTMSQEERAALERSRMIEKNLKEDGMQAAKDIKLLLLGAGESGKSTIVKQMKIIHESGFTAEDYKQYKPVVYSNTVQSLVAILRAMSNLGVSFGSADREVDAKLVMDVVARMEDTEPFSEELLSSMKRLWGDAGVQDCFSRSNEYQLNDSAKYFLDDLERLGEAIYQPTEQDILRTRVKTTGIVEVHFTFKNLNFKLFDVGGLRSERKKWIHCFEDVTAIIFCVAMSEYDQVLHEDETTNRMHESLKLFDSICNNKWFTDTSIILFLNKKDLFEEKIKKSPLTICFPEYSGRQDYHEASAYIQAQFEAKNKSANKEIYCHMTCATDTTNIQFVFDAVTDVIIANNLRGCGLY

Like-named read-outs stand apart in the source and are kept apart here. These are yes or no findings as the source states them, for the method shown. Some binding calls cover weakened binding; strength is not graded here. For some of these results: Tags and fused reporters may be left off the sequences shown.

The target in test [1] is T1, F44B9.6 (LIN-36) (C. elegans) (UniProt P34427).
T1 sequence: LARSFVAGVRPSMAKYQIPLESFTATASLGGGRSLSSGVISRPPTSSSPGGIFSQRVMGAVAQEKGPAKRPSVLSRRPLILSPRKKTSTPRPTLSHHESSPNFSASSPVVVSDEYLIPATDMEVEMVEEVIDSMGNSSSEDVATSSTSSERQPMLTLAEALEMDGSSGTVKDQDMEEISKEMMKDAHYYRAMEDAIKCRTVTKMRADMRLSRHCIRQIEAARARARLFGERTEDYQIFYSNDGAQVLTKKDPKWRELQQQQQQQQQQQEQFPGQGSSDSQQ
As to the kind of experiment: two-hybrid; yeast mating assay of Figure 1, reversed configuration: candidate inserts as bait, G-alpha subunits or candidates as prey; growth on Leu-/Trp-/His-/Ade- medium.

The next test has as its target T2, F59H5.1 (C. elegans) (UniProt Q9TZI4).
T2 sequence: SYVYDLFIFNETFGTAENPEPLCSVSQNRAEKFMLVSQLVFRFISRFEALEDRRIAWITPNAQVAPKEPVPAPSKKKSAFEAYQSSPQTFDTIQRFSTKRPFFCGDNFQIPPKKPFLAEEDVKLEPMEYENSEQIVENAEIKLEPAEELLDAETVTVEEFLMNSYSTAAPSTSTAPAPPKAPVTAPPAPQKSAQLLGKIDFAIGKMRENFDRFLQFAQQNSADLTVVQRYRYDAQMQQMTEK
The description is as above.

Test [2] deals with T3, GPA-13 (C. elegans) (UniProt Q9XTB2).
T3 sequence: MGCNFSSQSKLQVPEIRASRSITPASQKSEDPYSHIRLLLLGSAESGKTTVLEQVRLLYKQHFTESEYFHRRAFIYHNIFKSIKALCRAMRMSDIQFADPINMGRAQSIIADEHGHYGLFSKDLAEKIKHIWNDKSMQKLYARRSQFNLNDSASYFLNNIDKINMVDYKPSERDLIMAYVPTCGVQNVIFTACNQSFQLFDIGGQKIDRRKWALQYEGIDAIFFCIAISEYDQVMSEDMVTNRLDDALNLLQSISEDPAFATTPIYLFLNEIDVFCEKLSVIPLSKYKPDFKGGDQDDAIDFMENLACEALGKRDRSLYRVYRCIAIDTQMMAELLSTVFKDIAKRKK
As to the kind of experiment: two-hybrid; large yeast mating matrix: 197 candidate preys against the original baits and control baits (empty vector, p53, C. elegans G subunits, frameshifted GPA-1); AH109 bait x Y187 prey, 30 C, growth on LTHA- plates.

Test [3] deals with T3, GPA-13 (C. elegans). Kind of test: two-hybrid; library screen: G-alpha subunit as bait (pGBK-T7), mixed stage C. elegans N2 cDNA library in pACT as prey; selection on plates lacking His, Trp, Leu, Ade and X-gal; rescued preys re-tested by mating with the original and control baits.
Test [4] addresses T3, GPA-13 (C. elegans). Kind of test: two-hybrid; yeast mating assay of Figure 1: G-alpha subunits, wild type and GTPase-deficient (QL), as bait and candidates as prey; growth on Leu-/Trp-/His-/Ade- medium.
For test [5], the target named is GOA-1 (C. elegans) (UniProt P51875). Kind of test: two-hybrid; large yeast mating matrix: 197 candidate preys against the original baits and control baits (empty vector, p53, C. elegans G subunits, frameshifted GPA-1); AH109 bait x Y187 prey, 30 C, growth on LTHA- plates.
Test [6] has the same target. As to the kind of experiment: two-hybrid; library screen: G-alpha subunit as bait (pGBK-T7), mixed stage C. elegans N2 cDNA library in pACT as prey; selection on plates lacking His, Trp, Leu, Ade and X-gal; rescued preys re-tested by mating with the original and control baits.
Another test has as its target GOA-1-QL (C. elegans) (UniProt P51875). Kind of test: two-hybrid; yeast mating assay of Figure 1: G-alpha subunits, wild type and GTPase-deficient (QL), as bait and candidates as prey; growth on Leu-/Trp-/His-/Ade- medium.
The target of test [7] is T1, F44B9.6 (LIN-36) (C. elegans). Kind of test: two-hybrid; yeast mating assay of Figure 1, reversed configuration: candidate inserts as bait, G-alpha subunits or candidates as prey; growth on Leu-/Trp-/His-/Ade- medium. This is another data set of the same source.
Test [8] has as its target T4, GPA-7-QL (C. elegans) (UniProt Q21917).
T4 sequence: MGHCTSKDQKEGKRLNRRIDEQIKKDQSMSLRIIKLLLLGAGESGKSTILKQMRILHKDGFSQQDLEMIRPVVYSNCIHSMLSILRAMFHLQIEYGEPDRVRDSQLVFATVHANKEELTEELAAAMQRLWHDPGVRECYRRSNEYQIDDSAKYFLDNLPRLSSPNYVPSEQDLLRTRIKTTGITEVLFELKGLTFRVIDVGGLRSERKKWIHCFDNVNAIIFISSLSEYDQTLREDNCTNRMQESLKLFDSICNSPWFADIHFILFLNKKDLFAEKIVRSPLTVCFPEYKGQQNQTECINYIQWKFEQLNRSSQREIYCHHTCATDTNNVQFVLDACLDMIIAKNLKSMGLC
As to the kind of experiment: two-hybrid; large yeast mating matrix: 197 candidate preys against the original baits and control baits (empty vector, p53, C. elegans G subunits, frameshifted GPA-1); AH109 bait x Y187 prey, 30 C, growth on LTHA- plates.

Test [9] concerns the target T4, GPA-7-QL (C. elegans). Kind of test: two-hybrid; library screen: G-alpha subunit as bait (pGBK-T7), mixed stage C. elegans N2 cDNA library in pACT as prey; selection on plates lacking His, Trp, Leu, Ade and X-gal; rescued preys re-tested by mating with the original and control baits.
Test [10] has as its target T4, GPA-7-QL (C. elegans). Kind of test: two-hybrid; yeast mating assay of Figure 1: G-alpha subunits, wild type and GTPase-deficient (QL), as bait and candidates as prey; growth on Leu-/Trp-/His-/Ade- medium.
A further test deals with T5, GPA-7 (C. elegans) (UniProt Q21917).
T5 sequence: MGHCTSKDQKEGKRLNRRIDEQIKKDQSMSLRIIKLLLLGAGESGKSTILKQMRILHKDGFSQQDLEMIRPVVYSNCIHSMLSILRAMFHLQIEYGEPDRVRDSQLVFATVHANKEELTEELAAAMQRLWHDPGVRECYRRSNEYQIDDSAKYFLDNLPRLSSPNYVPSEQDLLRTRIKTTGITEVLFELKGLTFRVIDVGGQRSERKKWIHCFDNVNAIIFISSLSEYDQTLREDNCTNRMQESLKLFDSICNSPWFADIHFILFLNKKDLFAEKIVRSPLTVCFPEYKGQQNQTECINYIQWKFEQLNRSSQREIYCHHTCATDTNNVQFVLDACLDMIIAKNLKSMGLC
Described as above.

Test [11] deals with T6, GPA-7 fused to the transmembrane domain of Pat-3 (pRP2234) (C. elegans) (UniProt Q21917).
T6 sequence: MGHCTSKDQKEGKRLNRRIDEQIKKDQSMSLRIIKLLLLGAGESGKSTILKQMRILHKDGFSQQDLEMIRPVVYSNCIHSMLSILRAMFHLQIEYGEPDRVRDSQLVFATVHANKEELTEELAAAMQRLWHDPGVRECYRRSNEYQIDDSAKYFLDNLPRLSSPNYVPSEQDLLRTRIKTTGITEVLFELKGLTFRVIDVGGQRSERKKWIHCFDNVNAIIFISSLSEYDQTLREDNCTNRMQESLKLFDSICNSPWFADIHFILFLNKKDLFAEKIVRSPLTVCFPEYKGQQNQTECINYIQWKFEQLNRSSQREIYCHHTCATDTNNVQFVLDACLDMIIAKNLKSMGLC
As to the kind of experiment: membrane recruitment assay; reversed experiment: GFP-NHR-22 co-expressed with GPA-7 fused to the transmembrane domain of Pat-3 in C. elegans muscle cells; not shown.

As for GOA-1 (from UniProt P51875 1-354), the binding result (in [1]; in the test with F59H5.1 (C. elegans)) was “binds” in each case.

B1: F15D3.1, Dystrophin (DYS-1) (domain or fragment, UniProt Q9TW65 1948-2241)
chain: VREVPVDEYEETANISSGDELQDHKISSAVPDSESEIASMFEVLDSIEDSHTNFEEFPFDYLDSADDDLKKTLLKLESCEKTLAKNEMTINIAQAENARERITMLRQMALQRKDKLPKFNEEWNAMQELIQLADALVDEAERYESDQIPQMDRKSAPNVLGELRKRVANAEGPVIDLVKKLSQLVPRMQEDSPKSQDIRQKVYGIEDRFRRVGQAEGAAISKALSSALTEPELKLELDEVVRWCEMAEKEAAQNVNSLDGDGLEKLDGRLAQFTKELQERKDDMVQLEMAKNMI
Consider B1, for which the binding result in the test with GPA-13 (C. elegans) [2] and with GPA-13 (C. elegans) [3] was “binds” throughout.

B2: Y45G5AM.1 (domain or fragment, UniProt G5EEM0 15-400)
chain: CLVCQDFASGYHYGVPSCVGCKTFFRRTIMKKQKYICQFEGNCPVDKTIRCACRYCRFEKCLSVGMDRNALQQNRDPIGYTKRTRRPKKELKTTSDCSSDEGASTPPSVSPLQLSPPPISPLLFQAAPLKPRRCILQTLAEREKCANDLRLSEYLPIRSLHEALCSKALLNDTAFLEKWGQPSERHQIFDLRFVNHDDYHYWHERDWFLLTEYAKTFDVFEALDYQDKAELVRHAAITVPVLVQVWNSPDYGPDTIVFPDGAYFDRTPEPTRPAGLNRKKYQMLDLVLKPFRDLQLDATEFAAFKAVTFLNPDADISLPARKLVNNERVRITKQLYGYMAMKDDVDTAIERFARLVLMGTSMSKMACESKEAVWIADFFENIGFSA
For B2, the binding entry with GPA-13 (C. elegans) [2], with GPA-13 (C. elegans) [3] and with GPA-13 (C. elegans) [4] was “binds” each time.

B3: F59H5.1 (domain or fragment, UniProt Q9TZI4 501-742)
chain: SYVYDLFIFNETFGTAENPEPLCSVSQNRAEKFMLVSQLVFRFISRFEALEDRRIAWITPNAQVAPKEPVPAPSKKKSAFEAYQSSPQTFDTIQRFSTKRPFFCGDNFQIPPKKPFLAEEDVKLEPMEYENSEQIVENAEIKLEPAEELLDAETVTVEEFLMNSYSTAAPSTSTAPAPPKAPVTAPPAPQKSAQLLGKIDFAIGKMRENFDRFLQFAQQNSADLTVVQRYRYDAQMQQMTEK
With B3, the figures for the binding result with GOA-1 (C. elegans) [5], with GOA-1 (C. elegans) [6] and with GOA-1-QL (C. elegans) were “binds”, “binds” and “no binding”, respectively.

B4: F44B9.6 (LIN-36) (domain or fragment, UniProt P34427 682-962)
chain: LARSFVAGVRPSMAKYQIPLESFTATASLGGGRSLSSGVISRPPTSSSPGGIFSQRVMGAVAQEKGPAKRPSVLSRRPLILSPRKKTSTPRPTLSHHESSPNFSASSPVVVSDEYLIPATDMEVEMVEEVIDSMGNSSSEDVATSSTSSERQPMLTLAEALEMDGSSGTVKDQDMEEISKEMMKDAHYYRAMEDAIKCRTVTKMRADMRLSRHCIRQIEAARARARLFGERTEDYQIFYSNDGAQVLTKKDPKWRELQQQQQQQQQQQEQFPGQGSSDSQQ
B4: the binding entry with GOA-1 (C. elegans) [5] is “binds”; in the test with GOA-1 (C. elegans) [6], “binds”; in [7] it was “binds weakly”; in the test with GOA-1-QL (C. elegans), “no binding”.

B5: K06A1.4 (NHR-22) (domain or fragment, UniProt Q09587 271-579)
chain: CQRVLSNSPPFDIHQASTSHAGFIQHVQFYPVVEVENKIFELVDHYVRTEASLNDRRKIMYTDTQIRDVFDTTCECPYENHQLKPFNYKSFCGFVKHDFVMILDYVNQFPEFQALHKNDKNVVYRMACAVDSMLASAYYSYKVGIEKERLILFNGDYINMNPIPISGDEPGAGTEFQTPQEHEKYKTLMPLKLKQYFDLAIPFARLEVSFEEYVLLKALIIWQISNYRLLEEGRAICARQRDTIVQALHKVVEERGDEDPAIRVGQLLLSMSYITEQVQAMTNSYLVMTFFDVVSCDSIMYDLLSFRDD
Turning to B5, the binding entry in the test with GPA-7-QL (C. elegans) [8], with GPA-7-QL (C. elegans) [9], in the test with GPA-7-QL (C. elegans) [10] and with GPA-7 (C. elegans) was “binds” each time.

B6: NHR-22 fused to GFP (pRP2228) (protein, UniProt Q09587 1-579)
chain: MSTDLLYEYFYPPTDLFKNTFEDVPPSPESLDVGDSLGSSPSYDLGFQPSFDIDFCIWKEGSSSPPPESNHLPEIVNKASTSPRGMPSPLTDSRSCHVCSSPTANTLHFGGRSCKACAAFFRRSVSMSMTYECIGTGDDTNPCRTHYELRMICRHCRFIKCLDAGMRRELVQARKEETRVAKRRSKGLVVSKKEDDDVESSYDEYVNTYTNVQDSSPKMESGINEMTIPESYLSPDPSSSQPLDMTVTPPPLHRSTPSILLTPATGDRMHCQRVLSNSPPFDIHQASTSHAGFIQHVQFYPVVEVENKIFELVDHYVRTEASLNDRRKIMYTDTQIRDVFDTTCECPYENHQLKPFNYKSFCGFVKHDFVMILDYVNQFPEFQALHKNDKNVVYRMACAVDSMLASAYYSYKVGIEKERLILFNGDYINMNPIPISGDEPGAGTEFQTPQEHEKYKTLMPLKLKQYFDLAIPFARLEVSFEEYVLLKALIIWQISNYRLLEEGRAICARQRDTIVQALHKVVEERGDEDPAIRVGQLLLSMSYITEQVQAMTNSYLVMTFFDVVSCDSIMYDLLSFRDD
In the case of B6, the binding entry in test [11] is “binds”.
